#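 Interpolation was linear, between the two tested concentrations surrounding the appropriate level; five concentrations were tested over 48 hours in 96-well plates. Here, GI50 denotes the concentration required for 50% inhibition of growth.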 Active and inactive are the calls of the source. No stated cut-off is given here; in the data, active = GI50 up to about 1.1 µM and inactive = higher. Bridge positions count the residues as written; N and C are the ends. Square brackets hold non-standard residues; d marks the D form. Peptide text beside a SMILES is read from it. I, II: the chains in the order shown. * marks the point of attachment. Quinoxaline2carbonyl = O=C(c1cnc2ccccc2n1)*; NMeV = CN[CH](C(=O)O)C(C)C; NMeC = CN[CH](CS)C(=O)O
# System: NCI-H322M
# Assay: NCI tumour cell line growth inhibition, 48 h
row,Structure (SMILES),GI50
1,Cc1cc(-c2nc3cc(F)ccc3s2)ccc1NC(=O)[C@@H](N)CCCCN,inactive: 1.76 µM
2,Cc1ccc2c(c1)NC(=O)C(N=[N+]=[N-])(c1ccccc1)C2=O (stereo not given),inactive: 51.2 µM
3,CC(c1ccc(Br)cc1)C(C(=O)O)C(=O)O (stereo not given),inactive: > 100 µM
4,Cc1cc(Cl)ccc1NC(=O)C(=O)Cc1occc(=O)c1O,inactive: > 100 µM
5,CC(=O)Nc1ccc(S(=O)(=O)N=S(C)C)cc1,inactive: > 100 µM
6,CC(=O)c1cccc(NC(=O)C(=O)C(c2cnc3ccc([N+](=O)[O-])cc3n2)[N+](=O)[O-])c1 (stereo not given),inactive: > 100 µM
7,Cc1ccc(/N=N/C2S/C(=C(\C#N)c3nc4ccccc4[nH]3)N(c3ccccc3)C2=O)cc1 (stereo not given),inactive: > 100 µM
8,COC(=O)c1ccc(-c2nc(C#N)c(N)o2)cc1,inactive: > 100 µM
9,CC(=O)O[C@H]1C(=O)[C@]2(C)[C@@H](OC(=O)OCCC(O)CO)C[C@H]3OC[C@@]3(OC(C)=O)[C@H]2[C@H](OC(=O)c2ccccc2)[C@]2(O)C[C@H](OC(=O)[C@H](O)[C@@H](NC(=O)c3ccccc3)c3ccccc3)C(C)=C1C2(C)C (stereo not given in full),active: 0.027 µM
10,CC/C=C\C/C=C\C/C=C\CCCCCCCC(=O)OC [METHYL LINOLENATE],inactive: > 100 µM
11,O=c1[nH]c2ccccc2nc1CBr,inactive: 20 µM
12,COc1c(OC/C=C(\C)CCC=C(C)C)ccc2ccc(=O)oc12 [COLLININ],inactive: > 100 µM
13,Cc1ccccc1N/C(=C(/C(Cl)=C(Cl)Cl)[N+](=O)[O-])n1nnc2ccccc21,inactive: 21.6 µM
14,COC1=C(N=[N+]=[N-])C(=O)c2ncccc2C1=O,inactive: 17.9 µM
15,CCCc1c(-c2ccccc2)[nH]c2ccccc2c1=O,inactive: 82.8 µM
16,Cc1ccc(NC(=O)OCC(COc2ccc(Cl)cc2)OC(=O)Nc2ccc(C)cc2)cc1 (stereo not given),inactive: 26.8 µM
17,CC1CCCP(=O)(c2ccccc2)CCC1 (stereo not given),inactive: > 100 µM
18,COc1ccc(OC)c(NC2=NCCO2)c1,inactive: > 100 µM
19,C=C(C)[C@@]1(O)CCC[C@H]1NC(=O)OC(C)(C)C,inactive: > 100 µM
20,Clc1ccc(C2N3CCCCC3[C@@H]3c4[nH]c5ccccc5c4CCN23)cc1 (stereo not given in full),inactive: 65.6 µM
21,O=C1CC2(CCC(O)(c3cccc4ccccc34)C(C(=O)c3cccc4ccccc34)C2)C(=O)c2ccccc2N1 (stereo not given),inactive: 69.7 µM
22,CN(C)CC/C(=N\Nc1ccc(Cl)cc1)c1ccccc1,inactive: 3.48 µM

row,Structure (SMILES),GI50
1,COc1ccc(C)cc1Nc1nnc(-c2ccc(N)cc2)s1,inactive: 84.3 µM
2,O=c1nc(N2CCN(c3ccccc3)CC2)ccn1C1OC(CO)C(O)C1O (stereo not given),inactive: > 100 µM
3,CCCCCCCCCCCCCCCCCCCCCC(=O)Nc1ccn(C2OC(CO)C(O)C2O)c(=O)n1 (stereo not given),inactive: > 100 µM
4,C[N+]12C=CC=C1C(N1CCCC1)c1scc(-c3ccc(F)cc3)c12 (stereo not given),inactive: > 100 µM
5,COC(=O)C1=Cc2c(OC)cc(OC)c(OC)c2[C@H](c2cc(OC)c(OC)cc2OC)C1C(=O)OC (stereo not given in full),inactive: > 100 µM
6,NC1CCCCC1,inactive: > 562 µM
7,CCOC(=O)C(NC(C)=O)(Nc1ccc(S(N)(=O)=O)cc1)C(F)(F)F (stereo not given),inactive: > 100 µM
8,NNc1nnc(CCCCCCCCc2nnc(NN)n2N)n1N,inactive: > 100 µM
9,C/C(=N\NC(=S)Nc1ccc([N+](=O)[O-])cc1)c1nc2cccnc2[nH]1,active: 0.605 µM
10,Nc1ncnc2c1nc(Cl)n2C1OC(CO)C(O)C1O (stereo not given),inactive: 8.43 µM
11,Cc1ccc(C(=O)C2CC3(CCC2(O)c2ccc(C)cc2)CC(=O)Nc2ccccc2C3=O)cc1 (stereo not given),inactive: 63.5 µM
12,CC(C)OC(=S)Nc1ccc(Cl)c(/C=N/OC(C)(C)C)c1,inactive: 19.1 µM
13,Cc1nnc2sc(Cc3cnc(N)s3)nn12,inactive: > 100 µM
14,N#Cc1c(-c2ccccc2)c(/C=N/c2cccc(C(F)(F)F)c2)c(=O)n2c1[nH]c1ccccc12,inactive: 13.8 µM
15,NCS(=O)(=O)O,inactive: > 100 µM
16,O=c1ccc2ccc(O)cc2o1 [UMBELLIFERONE],inactive: > 100 µM
17,CCOc1ccccc1NC(=O)CSc1nnc(Cc2ccccc2)o1,inactive: > 100 µM
18,N=C(N)C1CN(CCCCCCCCCCN2CC(C(=N)N)C(O)=NC2=O)C(=O)N=C1O (stereo not given),inactive: > 10 µM
19,O=C(NCCCN1CCN(CCCNC(=O)c2cc(-c3ccccc3)nc3ccccc23)CC1)c1cc(-c2ccccc2)nc2ccccc12,inactive: 17.6 µM
20,Cc1ccc2c(c1)Sc1ccc(/N=N/N(C)C)cc1N2C,inactive: 58.2 µM
21,CC1=CC(=O)N(c2c(C)cccc2Cl)C(C)N1 (stereo not given),inactive: > 100 µM
22,COC(=O)C(Cc1cc(OC)c(OC)c(OC)c1)(NC(=O)c1ccccc1)P(=O)(OC)OC (stereo not given),inactive: > 100 µM

row,Structure (SMILES),GI50
1,O=C(O)CCC(NC(=O)/C(=C/c1ccccc1)NC(=O)c1ccccc1)C(=O)O (stereo not given),inactive: > 100 µM
2,CCOC(=O)C1C(c2cc(OC)c(O)c(OC)c2)c2cc3c(cc2OC1(C)O)OCO3 (stereo not given),inactive: > 100 µM
3,COC(=O)C1=COC(C)C2C[n+]3ccc4c([nH]c5ccccc54)c3CC12 (stereo not given),inactive: > 100 µM
4,C#CCn1c(=O)c(I)cn(/C(=C/C(=O)OCC)C(=O)OCC)c1=O,inactive: 16.8 µM
5,COC(=O)C(C)(C)OCc1ccc(C2NC(=O)N(c3cccc(Cl)c3)C(=O)N2c2cccc(Cl)c2)cc1 (stereo not given),inactive: > 100 µM
6,O=C(O)c1ccccc1/C=C1/Cc2ccc3c(c2C1=O)CCC3,inactive: 48 µM
7,Br/C(=N\N=c1/nn[nH][nH]1)c1ccncc1,inactive: > 100 µM
8,CC(C)[Si](Oc1cc2c3c(ccc2c(O)c1[C@@H](C)CO[Si](C)(C)C(C)(C)C)C(C)(C)CCC3)(C(C)C)C(C)C,inactive: > 100 µM
9,CC(C)(C)OC(=O)N1CCCC1C(=O)NC(c1ccccc1)c1ccccc1 (stereo not given),inactive: > 100 µM
10,O=C1CCC(=O)C1=NNc1ccccc1,inactive: > 100 µM
11,COc1cc(-c2c(C(C)=O)c(-c3ccccc3)n(C3OC(COC(C)=O)C(OC(C)=O)C(OC(C)=O)C3OC(C)=O)c(=S)c2C#N)ccc1O (stereo not given),inactive: > 100 µM
12,"CC1NC(=O)C(NC(=O)c2cnc3ccccc3n2)COC(=O)C(C(C)C)N(C)C(=O)C2CSSCC(C(=O)N(C)C(C(C)C)C(=O)OCC(NC(=O)c3cnc4ccccc4n3)C(=O)NC(C)C(=O)N2C)N(C)C1=O (stereo not given) (I: Quinoxaline2carbonyl-SA[NMeC][NMeV] / II: Quinoxaline2carbonyl-SA[NMeC][NMeV]; ester I:1-II:C, I:C-II:1; disulfide I:3-II:3; configuration not given here)",active: < 0.01 µM
13,NS(=O)(=O)c1nnc(NC(=O)CCC(=O)O)s1,inactive: > 100 µM
14,N#CC1=C(c2ccccc2)OC2(N)OC(c3ccccc3)=C(C#N)C12C#N (stereo not given),inactive: 55.3 µM
15,CCC/C=C/C=C\C(=O)O[C@@H]1[C@@H](C)[C@]2(O)[C@@H]3C=C(C)C(=O)[C@H]3CC(COC(C)=O)=C[C@H]2[C@@H]2C(C)(C)[C@]12OC(C)=O,inactive: 33.3 µM
16,COc1ccccc1OCc1nnc(SCC(=O)O)n1-c1ccccc1,inactive: > 100 µM
17,CC[C@@]1(O)C(=O)OCc2c1cc1n(c2=O)Cc2c-1nc1ccccc1c2/C=N\NC(=O)C(N)CS (stereo not given in full),inactive: 16 µM
18,COc1ccc(C2OC(c3ccncc3)=NN2C)cc1OC (stereo not given),inactive: > 100 µM
19,N/C(CCSCCSCC/C(N)=N\O)=N\O,inactive: > 100 µM
20,Cc1ccc(CSC(=N)Nc2ccccc2)cc1C,inactive: 28.2 µM
21,C=C(C)CNC(=S)N(N)c1ccc2ccccc2c1,inactive: > 100 µM
22,CSC(SC)=C(C(=O)O)P(=O)(O)O,inactive: > 100 µM

row,Structure (SMILES),GI50
1,CCOC(=O)C(C(=O)OCC)=C1NC2(c3ccccc3Nc3ccccc32)C(C#N)S1 (stereo not given),inactive: 16.3 µM
2,Cc1ncc(COP(=O)(O)O)c(/C=C2\SC(=S)NC2=O)c1O,inactive: > 100 µM
3,COc1cc(/C=N/N=C(\N)NO)cc(Cl)c1O,inactive: 71.3 µM
4,CC(=O)c1c(O)nnc(-c2ccc(Cl)cc2)c1-c1ccc(Cl)cc1,inactive: 38.6 µM
5,CCOC(=O)c1c(N2CCOCC2)[nH]c(=O)c(C(c2ccc(OC)cc2)c2c(O)c(C(=O)OCC)c(N3CCOCC3)[nH]c2=O)c1O,inactive: > 100 µM
6,O=[N+]([O-])c1ccc(-n2nnc(C3=NCCN3)c2-c2ccc(Cl)cc2)cc1,inactive: > 100 µM
7,Cc1ccc(/C=C2\CCCCC2=O)cc1,inactive: > 100 µM
8,CCCCC[C@@H]1OCO[C@@]2(C)/C=C(C)\C=C/C(=O)O[C@H]([C@@H](C)[C@@H](O)[C@H](C)[C@@]3(O)C[C@@H](O[C@H]4C[C@@H](O)[C@H](O)[C@@H](C)O4)[C@H](C)[C@@H](C)O3)[C@@H](OC)/C=C\C=C(\C)C[C@@H]1[C@@H]2O (stereo in doubt),active: 0.0547 µM
9,COc1ccc(-c2c(C(C)=O)c(C)n(C3OC(COC(C)=O)C(OC(C)=O)C(OC(C)=O)C3OC(C)=O)c(=S)c2C#N)cc1 (stereo not given),inactive: > 100 µM
10,NCCSS(=O)(=O)CCN,inactive: > 100 µM
11,N#CCCC[Si]12OCCN(CCO1)CCO2,inactive: > 100 µM
12,COC1C=COC2(C)Oc3c(C)c(O)c4c(c3C2=O)/C(=N/C2CCC(O)OC2C)C=C(NC(=O)/C(C)=C\C(=O)C2CC2C(O)C(C)C(O)C(C)C(OC(C)=O)C1C)C4=O (stereo not given),inactive: 3.07 µM
13,O=C(OCC12CC3CC(CC(C3)C1)C2)c1ccc(NCc2cc(O)ccc2O)cc1,inactive: 7.64 µM
14,O/N=C/c1ncccc1C1OCCO1,inactive: > 100 µM
15,O=C1/C(=C/c2ccccc2)NC(=S)N1CN1CCOCC1,inactive: > 100 µM
16,C#C[C@]1(O)CC[C@H]2[C@@H]3CCc4cc(OC(=O)c5cccc6cc7ccccc7nc56)ccc4[C@H]3CC[C@@]21C,inactive: 26.5 µM
17,O=C1CC[C@H](NC(=O)Cc2ccccc2)C(=O)N1 [ANTINEOPLASTON A10],inactive: > 1250 µM
18,O=[N+]([O-])c1ccc(NSc2ccccc2)cc1,inactive: 70.1 µM
19,Cc1ccc(NC(=O)S(N)(c2ccc(C)cc2)[N+](=O)[O-])cc1 (stereo not given),inactive: > 100 µM
